Measured values published in PubChem BioAssay AID1745853 (National Center for Advancing Translational Sciences (NCATS), 2022).
This is one part of the list. These are further read-outs of the screen, such as a control signal, another cell line or another target. No call is given for them.

Columns and labels:
Test in all cases: Primary Screen for Target Class Profiling of Small Molecule Inhibitors of Methyltransferases
[1] = target: Glycine N-methyltransferase (Homo sapiens) (UniProt Q14749); details: purified enzyme, MTase-Glo SAH luminescence; measured here: GNMT inhibition; at 40 µM; stronger effect = lower value
Summary of the method: (§1)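 Each enzyme was reacted with SAM and its substrate, with compounds tested once at 40 uM; SAH formed was read by MTase-Glo luminescence.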

[2] = target: Guanidinoacetate N-methyltransferase (Homo sapiens) (UniProt Q14353); details: purified enzyme, MTase-Glo SAH luminescence; measured here: GAMT inhibition; at 40 µM; stronger effect = lower value
Summary of the method: as §1

[3] = target: Histamine N-methyltransferase (Homo sapiens) (UniProt P50135); details: purified enzyme, MTase-Glo SAH luminescence; measured here: HNMT inhibition; at 40 µM; stronger effect = lower value
Summary of the method: as §1

[4] = target: Nicotinamide N-methyltransferase (Homo sapiens) (UniProt P40261); details: purified enzyme, MTase-Glo SAH luminescence; measured here: NNMT inhibition; at 40 µM; stronger effect = lower value
Summary of the method: as §1

[5] = target: Phenylethanolamine N-methyltransferase (Homo sapiens) (UniProt P11086); details: purified enzyme, MTase-Glo SAH luminescence; measured here: PNMT inhibition; at 40 µM; stronger effect = lower value
Summary of the method: as §1
% is scaled to controls: 0 for no effect and ±100 for the full control effect.

Structure (SMILES): COCCN1C(=O)CCC2(C(=O)N3CCN(c4ccccn4)CC3)CCCC=C12 (stereo not given)
- activity change, negative = inhibition [1]: 0.744%
- activity change, negative = inhibition [2]: 2.02%
- activity change, negative = inhibition [3]: 1.11%
- activity change, negative = inhibition [4]: -2.87%
- activity change, negative = inhibition [5]: -0.433%

Structure (SMILES): CCOc1ccc(-c2cccc3c2CCNC3)cc1C(N)=O
- activity change, negative = inhibition [1]: -5.59%
- activity change, negative = inhibition [2]: -8.75%
- activity change, negative = inhibition [3]: -10.8%
- activity change, negative = inhibition [4]: -11.8%
- activity change, negative = inhibition [5]: -12.9%

Structure (SMILES): CC[S+](=O)([O-])N1C[C@@H](CO)[C@@H]2Oc3c(F)cccc3[C@@H]21
- activity change, negative = inhibition [1]: -7.48%
- activity change, negative = inhibition [2]: -4.81%
- activity change, negative = inhibition [3]: -2.38%
- activity change, negative = inhibition [4]: -10.9%
- activity change, negative = inhibition [5]: -10.1%

Structure (SMILES): Cc1ccc(Cn2c(=O)c3ccccc3n3c(CCC(=O)NCCC(C)C)nnc23)cc1
- activity change, negative = inhibition [1]: -6.45%
- activity change, negative = inhibition [2]: 0.588%
- activity change, negative = inhibition [3]: 4.37%
- activity change, negative = inhibition [4]: 12.7%
- activity change, negative = inhibition [5]: -1.33%

Structure (SMILES): CC1CCN(C(=O)C[C@@H]2c3nc(NC(=O)CC(C)(C)C)sc3C[C@@H]3[C@](C)(CO)[C@H](O)CC[C@]32C)CC1
- activity change, negative = inhibition [1]: -3.06%
- activity change, negative = inhibition [2]: 2.35%
- activity change, negative = inhibition [3]: -1.57%
- activity change, negative = inhibition [4]: -2.58%
- activity change, negative = inhibition [5]: 8.69%

Structure (SMILES): CC(=O)OC[C@]12[C@@H](OC(=O)c3ccoc3)C[C@@H]3[C@@H](OC(C)=O)[C@]1(OC3(C)C)[C@@](C)(O)C[C@H](OC(=O)c1ccoc1)[C@@H]2OC(=O)c1ccoc1
- activity change, negative = inhibition [1]: 0.315%
- activity change, negative = inhibition [2]: -0.484%
- activity change, negative = inhibition [3]: 7.22%
- activity change, negative = inhibition [4]: -12.7%
- activity change, negative = inhibition [5]: -5.78%

Structure (SMILES): CCCSCCCN1C(=O)c2nc3ccccc3n2CC1(C)C(=O)NC1CCCCC1C (stereo not given)
- activity change, negative = inhibition [1]: 1.65%
- activity change, negative = inhibition [2]: 4.88%
- activity change, negative = inhibition [3]: 6.07%
- activity change, negative = inhibition [4]: 0.866%
- activity change, negative = inhibition [5]: 0.807%

Structure (SMILES): C[C@@H]1CCN(C(=O)N2CCCC2)C[C@@H]1N(C)c1ncnc2[nH]ccc12
- activity change, negative = inhibition [1]: -5.04%
- activity change, negative = inhibition [2]: -6.5%
- activity change, negative = inhibition [3]: -0.451%
- activity change, negative = inhibition [4]: -24%
- activity change, negative = inhibition [5]: -12.9%

Structure (SMILES): Cc1nc(C2(C)CCN(C(=O)CCCC(=O)n3nc(C)c4ccccc43)CC2)no1
- activity change, negative = inhibition [1]: -3.22%
- activity change, negative = inhibition [2]: -1.38%
- activity change, negative = inhibition [3]: 1.29%
- activity change, negative = inhibition [4]: -15.8%
- activity change, negative = inhibition [5]: -2.44%

Structure (SMILES): CCOc1ccc(CCNC(=O)CCc2nnc3n(CCCOC(C)C)c(=O)c4ccccc4n23)cc1
- activity change, negative = inhibition [1]: -3.79%
- activity change, negative = inhibition [2]: 32.1%
- activity change, negative = inhibition [3]: 9.49%
- activity change, negative = inhibition [4]: 11.3%
- activity change, negative = inhibition [5]: 2.52%

Structure (SMILES): COCCNC(=O)c1cc(-c2ccccc2OC)c2cccn2n1
- activity change, negative = inhibition [1]: -12.7%
- activity change, negative = inhibition [2]: -7%
- activity change, negative = inhibition [3]: -6.26%
- activity change, negative = inhibition [4]: -20.1%
- activity change, negative = inhibition [5]: -8.96%

Structure (SMILES): COc1ccc(NC(=O)CCc2nnc3n(CCc4ccccc4)c(=O)c4ccccc4n23)cc1OC
- activity change, negative = inhibition [1]: 4.63%
- activity change, negative = inhibition [2]: 3.38%
- activity change, negative = inhibition [3]: 6.61%
- activity change, negative = inhibition [4]: 7.05%
- activity change, negative = inhibition [5]: 1.26%

Structure (SMILES): Cn1nccc1-c1ccccc1Oc1ccc(S(=O)(=O)Nc2nccs2)cc1C#N
- activity change, negative = inhibition [1]: -4.59%
- activity change, negative = inhibition [2]: 3%
- activity change, negative = inhibition [3]: 12.1%
- activity change, negative = inhibition [4]: -25%
- activity change, negative = inhibition [5]: 1.79%

Structure (SMILES): CN1CCN(CCNC(=O)CCn2ccc3cc(S(=O)(=O)N4CCCCC4)ccc32)CC1
- activity change, negative = inhibition [1]: 7.07%
- activity change, negative = inhibition [2]: 2.8%
- activity change, negative = inhibition [3]: 2.99%
- activity change, negative = inhibition [4]: 13.4%
- activity change, negative = inhibition [5]: 6.14%

Structure (SMILES): Cc1cccc(NC(=O)Cn2nc3n(CCC(C)C)c(=O)c4ccc(C(=O)NCC(C)C)cc4n3c2=O)c1
- activity change, negative = inhibition [1]: -1.64%
- activity change, negative = inhibition [2]: -1.97%
- activity change, negative = inhibition [3]: 1.64%
- activity change, negative = inhibition [4]: -5.62%
- activity change, negative = inhibition [5]: -4.43%

Structure (SMILES): O=C(CCn1ccc2cc(S(=O)(=O)N3CCCCC3)ccc21)N1CCN(c2ccc(F)cc2)CC1
- activity change, negative = inhibition [1]: -3.32%
- activity change, negative = inhibition [2]: -1.93%
- activity change, negative = inhibition [3]: -4.42%
- activity change, negative = inhibition [4]: -10%
- activity change, negative = inhibition [5]: -5.95%

Structure (SMILES): O=C(CSc1nnc2n(Cc3ccccc3)c(=O)c3ccccc3n12)Nc1ccc(F)cc1
- activity change, negative = inhibition [1]: -10.3%
- activity change, negative = inhibition [2]: 0%
- activity change, negative = inhibition [3]: 0.494%
- activity change, negative = inhibition [4]: -18.3%
- activity change, negative = inhibition [5]: -5.54%

Structure (SMILES): O=C(C[C@@H]1CCNC[C@@H]1Cc1cc(COc2ccccc2)on1)Nc1ccccc1
- activity change, negative = inhibition [1]: -6.61%
- activity change, negative = inhibition [2]: -0.198%
- activity change, negative = inhibition [3]: -6.83%
- activity change, negative = inhibition [4]: -9.57%
- activity change, negative = inhibition [5]: -13.4%

Structure (SMILES): COC(=O)c1cc2n(n1)CC(C)(C(=O)NC1CCC(C)CC1)N(Cc1ccc(F)cc1)C2=O (stereo not given)
- activity change, negative = inhibition [1]: 3.45%
- activity change, negative = inhibition [2]: 0%
- activity change, negative = inhibition [3]: 6.93%
- activity change, negative = inhibition [4]: 3.85%
- activity change, negative = inhibition [5]: 4.03%

Structure (SMILES): CCOc1cccc(C2c3cccn3-c3sc4c(c3CN2C(=O)Nc2ccc(C)cc2)CCCC4)c1 (stereo not given)
- activity change, negative = inhibition [1]: 1.81%
- activity change, negative = inhibition [2]: 0%
- activity change, negative = inhibition [3]: 1.53%
- activity change, negative = inhibition [4]: -0.587%
- activity change, negative = inhibition [5]: 6.05%

Structure (SMILES): CCOc1ccc(CCN2C(=O)c3cc4ccccc4n3CC2(C)C(=O)NCc2ccccc2OC)cc1 (stereo not given)
- activity change, negative = inhibition [1]: 2.95%
- activity change, negative = inhibition [2]: 3.96%
- activity change, negative = inhibition [3]: 0.622%
- activity change, negative = inhibition [4]: 6.88%
- activity change, negative = inhibition [5]: -0.445%

Structure (SMILES): CC1CCCCC1NC(=O)C1(C)Cn2c(nc3ccccc32)C(=O)N1Cc1ccccc1 (stereo not given)
- activity change, negative = inhibition [1]: 6.76%
- activity change, negative = inhibition [2]: 0%
- activity change, negative = inhibition [3]: 6.37%
- activity change, negative = inhibition [4]: 7.8%
- activity change, negative = inhibition [5]: 4.43%

Structure (SMILES): O=C(CSc1nnc2n(Cc3ccc(F)cc3)c(=O)c3ccccc3n12)Nc1cccc(F)c1
- activity change, negative = inhibition [1]: 3.09%
- activity change, negative = inhibition [2]: 0%
- activity change, negative = inhibition [3]: 10.5%
- activity change, negative = inhibition [4]: -4.17%
- activity change, negative = inhibition [5]: 5.9%

Structure (SMILES): COCCCNC(=O)C1CCCN1Cc1cccc(-c2ccc(C)c(Cl)c2)c1 (stereo not given)
- activity change, negative = inhibition [1]: -3.18%
- activity change, negative = inhibition [2]: 4.14%
- activity change, negative = inhibition [3]: 0.711%
- activity change, negative = inhibition [4]: -4.37%
- activity change, negative = inhibition [5]: 5.58%

Structure (SMILES): CC(C)Cn1c(=O)c2ccc(C(=O)NC(C)C)cc2n2c(SCc3ccccc3Cl)nnc12
- activity change, negative = inhibition [1]: 3.86%
- activity change, negative = inhibition [2]: 0%
- activity change, negative = inhibition [3]: 4.46%
- activity change, negative = inhibition [4]: 5.79%
- activity change, negative = inhibition [5]: 4.93%

Structure (SMILES): Cc1ccc(CC(=O)N2CCN(c3cc(C(F)(F)F)ncn3)CC2)cc1
- activity change, negative = inhibition [1]: -3.73%
- activity change, negative = inhibition [2]: 1.87%
- activity change, negative = inhibition [3]: -0.314%
- activity change, negative = inhibition [4]: -1.07%
- activity change, negative = inhibition [5]: -3.97%

Structure (SMILES): CSc1cccc(N2C(=O)c3cc(C(C)(C)C)nn3CC2(C)C(=O)NCc2ccccc2)c1 (stereo not given)
- activity change, negative = inhibition [1]: -4.13%
- activity change, negative = inhibition [2]: 3.4%
- activity change, negative = inhibition [3]: -4.03%
- activity change, negative = inhibition [4]: -5.98%
- activity change, negative = inhibition [5]: -2.9%

Structure (SMILES): COC(=O)c1ncn2c1C(=O)N(Cc1ccc(F)cc1)C(C)(C(=O)NC1CCCCCC1)C2 (stereo not given)
- activity change, negative = inhibition [1]: 2.13%
- activity change, negative = inhibition [2]: 3.27%
- activity change, negative = inhibition [3]: 2.7%
- activity change, negative = inhibition [4]: -2.16%
- activity change, negative = inhibition [5]: 0.3%

Structure (SMILES): O=C([C@@H]1C[C@H](F)CN1C(=O)Cc1ccccc1F)N1CCCCC1
- activity change, negative = inhibition [1]: -2.09%
- activity change, negative = inhibition [2]: -5.72%
- activity change, negative = inhibition [3]: 0.386%
- activity change, negative = inhibition [4]: -9.73%
- activity change, negative = inhibition [5]: -6.04%
